According to the supplement of paper PMC4466236:
The full ranking holds about 33,000 sequences; the median of “E-score (dimensionless, -0.5 to 0.5)” is about -0.058, and the highest 2% start at about 0.35. The list shows a part of the results.

tested on: MvaT; assay: PBM 8-mer E-score (mean of HK and ME arrays) (E-score (dimensionless, -0.5 to 0.5)); higher = stronger relative binding preference; most listed sequences are background and not binding sites
In short: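 Full-length P. aeruginosa MvaT, with glutathione S-transferase fused to its N-terminus (cloned into pTH6838 by isothermal assembly), was tested by protein binding microarray using a previously described protocol. Two universal double-stranded 60-mer arrays (ME and HK) were used, each with a constant 25-mer primer region and a variable 35-mer region covering all 8-mers. The rank-based 8-mer E-score (-0.5 to 0.5) is the mean of the two arrays, parsed with a custom Python script.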

| Sequence | PBM 8-mer E-score |
| --- | --- |
| CCGTCACA | -0.104 |
| TACTTTCA | 0.264 |
| GGCGTTAC | -0.109 |
| ACCTTAGG | -0.117 |
| ACGTAGGC | -0.247 |
| AGATACCG | -0.0154 |
| CTTGGCTC | -0.309 |
| AGCGGAGG | -0.323 |
| AACCTATC | -0.0668 |
| AAAGCTCT | -0.227 |
| GAATCACA | -0.0829 |
| CCCCCTTA | -0.162 |
| AGCTTGAC | -0.164 |
| CCCTACTC | -0.233 |
| AATCTACA | -0.00432 |
| AGTGACAC | -0.0401 |
| ACGGCGGA | -0.204 |
| CCGGGCCC | -0.36 |
| AGTACCAA | 0.0222 |
| AGCACGTC | -0.121 |
| CAAAGGGA | -0.0943 |
| TGCGTTAA | 0.0631 |
| CCATAGAA | 0.0305 |
| CAAATTCC | -0.0407 |
| CACGGTTA | 0.0326 |

| Sequence | PBM 8-mer E-score |
| --- | --- |
| GTATCACA | 0.0841 |
| TTACAGAA | 0.16 |
| AACATCAC | 0.061 |
| GGAATCGA | 0.0138 |
| ATACACAC | 0.151 |
| AGTCGTGG | -0.0561 |
| GAACAAAC | 0.125 |
| CGGATGTA | -0.0214 |
| AGGAGGCA | -0.256 |
| AGGCTTCC | -0.288 |
| CCCGTGAA | -0.129 |
| TTGGTAAA | 0.213 |
| GAATCGCC | -0.206 |
| GTAGAAAA | 0.0782 |
| TGATCTAA | 0.0137 |
| GGTCTGAA | -0.0639 |
| AGCCGATA | 0.147 |
| GCTGTGGA | -0.0892 |
| ACAGACGG | 0.038 |
| AAATGGCC | 0.0191 |
| ACTTACGG | 0.0941 |
| ATGAGGCC | -0.185 |
| CTTGACTC | -0.192 |
| CGCTACTA | 0.0641 |
| GCCAAGTA | 0.0612 |

| Sequence | PBM 8-mer E-score |
| --- | --- |
| GAGTGCCA | -0.148 |
| ATAGAGAT | 0.121 |
| GCAGCCGA | -0.257 |
| ATCATATC | 0.135 |
| GACAATGA | 0.0582 |
| ACATTGCG | 0.0134 |
| AACACCCA | 0.0624 |
| GCGCTGTA | -0.163 |
| GCACGAAA | -0.0312 |
| ATTCGTGA | -0.0182 |
| AACAACCG | -0.0212 |
| ATCAACGA | 0.000441 |
| CAGGACAC | -0.248 |
| TATAATCA | 0.389 |
| TGCTGACA | -0.15 |
| CGCAAAAA | 0.196 |
| CAAGAATC | -0.161 |
| AGTCCACA | -0.136 |
| CACTTCCA | 0.113 |
| AGCGCCTC | -0.314 |
| ACAGTATG | 0.184 |
| CGGGTTCA | -0.171 |
| CATATAAC | 0.415 |
| ACCCCACT | -0.19 |
| AACATTAT | 0.34 |

| Sequence | PBM 8-mer E-score |
| --- | --- |
| CAGATGTA | 0.0425 |
| AAGCACAG | -0.107 |
| AAATGTAT | 0.311 |
| CAAGCCGA | -0.129 |
| GGTCTTCA | -0.148 |
| CCCTTCGC | -0.248 |
| ACTCCGGG | -0.186 |
| TCTAGCCA | -0.119 |
| AAAGCAAC | 0.115 |
| AACAGTCG | 0.0234 |
| GGGGATAA | 0.171 |
| CCGAAGAG | -0.221 |
| GGGCGTGA | -0.169 |
| GCCGCTTA | -0.0763 |
| ACCGAGAG | -0.237 |
| AACGGACC | -0.079 |
| CCAATGAG | -0.167 |
| AGCTGTCG | -0.148 |
| ACAAGTTC | 0.183 |
| TATACAAA | 0.392 |
| GTCGACAA | -0.0244 |
| AGGCAAAA | -0.118 |
| ATCACAGA | -0.0285 |
| AATTACGC | 0.22 |
| CTGACGGC | -0.324 |

| Sequence | PBM 8-mer E-score |
| --- | --- |
| GGAACTAA | 0.214 |
| AGCCAGAT | -0.134 |
| CTTGATAA | 0.114 |
| GTCAGCAC | -0.0958 |
| ACTCTGTC | -0.0811 |
| GCCACGAA | -0.135 |
| ATACTTTC | 0.283 |
| AAAACAGA | 0.174 |
| CGCTCGCA | -0.136 |
| CTTCCTAA | -0.0464 |
| CCGCACTA | 0.0842 |
| CGTGGGAG | -0.344 |
| CCGAACCC | -0.253 |
| ACCCCCAT | -0.0987 |
| ATATGTCC | 0.173 |
| CCCCAAAC | -0.0346 |
| ACTCGAAG | -0.183 |
| CCCTCTCA | -0.209 |
| CCCGAGTA | -0.0959 |
| TAATCCAA | 0.224 |
| AGGTTTCA | -0.193 |
| GAAGTGTC | 0.0566 |
| ACTGAGTG | -0.0362 |
| CCTGCTGC | -0.268 |
| ACTAAGCA | 0.0783 |

| Sequence | PBM 8-mer E-score |
| --- | --- |
| ACGCACCA | -0.277 |
| ATCAGAGA | -0.03 |
| CATTCTAA | 0.11 |
| AATCACTC | 0.0287 |
| ACCCGCGT | -0.208 |
| GTTTCGCA | -0.0431 |
| CATATACC | 0.166 |
| GGGGCAGA | -0.284 |
| TACTATCA | 0.276 |
| CGATAGTA | 0.18 |
| CGATTGAA | 0.0954 |
| AGGCCACG | -0.195 |
| TAGCGCGA | -0.133 |
| CTGTTTGC | -0.0329 |
| CTACATGA | 0.0935 |
| CTAGGCGA | -0.131 |
| GACTTTAC | 0.0509 |
| ATTGTTCA | 0.149 |
| AGAAGGAA | -0.0232 |
| ACGTGTTA | 0.118 |
| AGCGTTAA | 0.0464 |
| AGATAGCA | 0.0646 |
| ACGGGAAC | -0.19 |
| GAACCAAA | 0.0493 |
| AGCATAAA | 0.0911 |

| Sequence | PBM 8-mer E-score |
| --- | --- |
| AGCAGTCG | -0.309 |
| AAAGGTAT | 0.0686 |
| AGCCACCC | -0.274 |
| ACCGAAAT | 0.166 |
| ACGTCCAC | -0.152 |
| TTACGTAA | 0.169 |
| AGCCCTTC | -0.267 |
| CAGCTGCA | -0.132 |
| CAAGTCTC | -0.243 |
| CAACTAAG | 0.0776 |
| GCTGCGCC | -0.0317 |
| GATAAGAA | 0.121 |
| TGAAGACA | 0.125 |
| CGCGCCGA | -0.291 |
| CCCGGCCA | -0.173 |
| AGCCGACT | -0.0783 |
| TCTGGGCA | -0.17 |
| ACAAACAG | 0.231 |
| AGAACGAA | 0.102 |
| CGAGCATC | -0.252 |
| AGCCGTAC | -0.134 |
| CGGACCGC | -0.338 |
